# Source: the supplement of paper PMC8728848
# Some of the results follow.
# B1: chitinase 3-like protein 2 (Homo sapiens) (protein)
# chain: YKLVCYFTQWSQDRQEPGKFTPENIDPFLCSHLIYSFASIENNKVIIKDKSEVMLYQTINSLKTKNPKLKILLSIGGYLFGSKGFHPMVDSSTSRLEFINSIILFLRNHNFDGLDVSWIYPDQKENTHFTVLIHELAEAFQKDFTKSTKERLLLTAGVSAGRQMIDNSYQVEKLAKDLDFINLLSFDFHGSWEKPLITGHNSPLSKGWQDRGPSSYYNVEYAVGYWIHKGMPSEKVVMGIPTYGHSFTLASAETTVGAPASGPGAAGPITESSGFLAYYEICQFLKGAKITRLQDQQVPYAVKGNQWVGYDDVKSMETKVQFLKNLNLGGAMIWSIDMDDFTGKSCNQGPYPLVQAVKRSLGSL
# Assays:
# Experiment in all cases: glycan array binding signal (z-score within array); higher = stronger binding
# Conditions in all cases: glycan notation: IUPAC condensed, linker removed
# Gal6S(b1-4)Glc = biological target: Gal6S(b1-4)Glc
# In short: (§1)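 The binding signal is a Z-score computed within each array and averaged over linkers. Arrays of the same protein sequence at different concentrations or buffers were also averaged together. Data originate from 3228 arrays in the Consortium for Functional Glycomics database, kept only where the protein sequence was available.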
# Gal6S(b1-4)Glc6S = biological target: Gal6S(b1-4)Glc6S
# In short: as §1
# Gal6S(b1-4)GlcNAc = biological target: Gal6S(b1-4)GlcNAc
# In short: as §1
# GalNAc(a1-3)Gal = biological target: GalNAc(a1-3)Gal
# In short: as §1
# GalNAc(a1-3)GalNAc = biological target: GalNAc(a1-3)GalNAc
# In short: as §1
# [1] = biological target: GalNAc(b1-3)Gal(a1-4)Gal(b1-4)GlcNAc
# In short: as §1
# GalNAc(b1-4)GlcNAc = biological target: GalNAc(b1-4)GlcNAc
# In short: as §1
# Glc(a1-4)Glc = biological target: Glc(a1-4)Glc
# In short: as §1
# Glc(a1-6)Glc(a1-6)Glc = biological target: Glc(a1-6)Glc(a1-6)Glc
# In short: as §1
# Glc(b1-4)Glc = biological target: Glc(b1-4)Glc
# In short: as §1
# Glc(b1-6)Glc = biological target: Glc(b1-6)Glc
# In short: as §1
# GlcA(b1-3)Gal = biological target: GlcA(b1-3)Gal
# In short: as §1
# GlcA(b1-6)Gal = biological target: GlcA(b1-6)Gal
# In short: as §1
# [2] = biological target: GlcNAc(a1-3)Gal(b1-4)GlcNAc
# In short: as §1
# [3] = biological target: GlcNAc(a1-6)Gal(b1-4)GlcNAc
# In short: as §1
# [4] = biological target: GlcNAc(b1-2)Gal(b1-3)GlcNAc
# In short: as §1
# [5] = biological target: GlcNAc(b1-2)Man(a1-3)[GlcNAc(b1-2)Man(a1-6)]Man(b1-4)GlcNAc(b1-4)GlcNAc
# In short: as §1
# GlcNAc(b1-3)Gal = biological target: GlcNAc(b1-3)Gal
# In short: as §1
# [6] = biological target: GlcNAc(b1-3)Gal(b1-3)GalNAc
# In short: as §1
# GlcNAc(b1-3)Gal(b1-4)Glc = biological target: GlcNAc(b1-3)Gal(b1-4)Glc
# In short: as §1
# [7] = biological target: GlcNAc(b1-3)Gal(b1-4)GlcNAc
# In short: as §1
# [8] = biological target: GlcNAc(b1-3)Gal(b1-4)GlcNAc(b1-3)Gal(b1-4)GlcNAc
# In short: as §1
# GlcNAc(b1-3)GalNAc = biological target: GlcNAc(b1-3)GalNAc
# In short: as §1
# [9] = biological target: GlcNAc(b1-3)[GlcNAc(b1-4)][GlcNAc(b1-6)]GlcNAc
# In short: as §1
# [10] = biological target: GlcNAc(b1-3)[GlcNAc(b1-6)]Gal(b1-4)GlcNAc
# In short: as §1
# [11] = biological target: GlcNAc(b1-3)[GlcNAc(b1-6)]GlcNAc
# In short: as §1
# [12] = biological target: GlcNAc(b1-4)Gal(b1-4)GlcNAc
# In short: as §1
# [13] = biological target: GlcNAc(b1-4)GlcNAc(b1-4)GlcNAc
# In short: as §1
# [14] = biological target: GlcNAc(b1-4)GlcNAc(b1-4)GlcNAc(b1-4)GlcNAc(b1-4)GlcNAc
# In short: as §1
# [15] = biological target: GlcNAc(b1-4)GlcNAc(b1-4)GlcNAc(b1-4)GlcNAc(b1-4)GlcNAc(b1-4)GlcNAc
# In short: as §1
binder,measurement,setting,value
B1,glycan array binding signal (z-score),Gal6S(b1-4)Glc,-0.062
same,glycan array binding signal (z-score),Gal6S(b1-4)Glc6S,0.079
same,glycan array binding signal (z-score),Gal6S(b1-4)GlcNAc,-0.211
same,glycan array binding signal (z-score),GalNAc(a1-3)Gal,-0.046
same,glycan array binding signal (z-score),GalNAc(a1-3)GalNAc,-0.205
same,glycan array binding signal (z-score),[1],-0.193
same,glycan array binding signal (z-score),GalNAc(b1-4)GlcNAc,2.63
same,glycan array binding signal (z-score),Glc(a1-4)Glc,-0.192
same,glycan array binding signal (z-score),Glc(a1-6)Glc(a1-6)Glc,-0.245
same,glycan array binding signal (z-score),Glc(b1-4)Glc,-0.25
same,glycan array binding signal (z-score),Glc(b1-6)Glc,-0.197
same,glycan array binding signal (z-score),GlcA(b1-3)Gal,-0.236
same,glycan array binding signal (z-score),GlcA(b1-6)Gal,-0.235
same,glycan array binding signal (z-score),[2],-0.271
same,glycan array binding signal (z-score),[3],-0.221
same,glycan array binding signal (z-score),[4],-0.208
same,glycan array binding signal (z-score),[5],-0.078
same,glycan array binding signal (z-score),GlcNAc(b1-3)Gal,-0.203
same,glycan array binding signal (z-score),[6],-0.22
same,glycan array binding signal (z-score),GlcNAc(b1-3)Gal(b1-4)Glc,-0.201
same,glycan array binding signal (z-score),[7],0.177
same,glycan array binding signal (z-score),[8],-0.257
same,glycan array binding signal (z-score),GlcNAc(b1-3)GalNAc,-0.268
same,glycan array binding signal (z-score),[9],-0.223
same,glycan array binding signal (z-score),[10],-0.229
same,glycan array binding signal (z-score),[11],-0.061
same,glycan array binding signal (z-score),[12],0.235
same,glycan array binding signal (z-score),[13],-0.012
same,glycan array binding signal (z-score),[14],7.67
same,glycan array binding signal (z-score),[15],9.06
